# Source: paper PMC6919601, “Identification of Plasmodium dipeptidyl aminopeptidase allosteric inhibitors by high throughput screening” (PLoS ONE, 2019)
# About 230 (0.21%) of roughly 110,000 compounds showed an effect of 50% or more. Some of the results follow.
# Target: DPAP1 (Plasmodium falciparum, UniProt Q8IIJ9)
# Assay: primary screen, percent inhibition; read by cleavage of a fluorogenic dipeptide substrate; higher = more effect of the substance
# Parameters: species or system P. falciparum D10 trophozoite lysates; single well
# 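Note: 30 min substrate incubation versus DMSO and 10 µM JCP410 controls.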
# Chain of DPAP1 (Q8IIJ9 whole entry, looked up): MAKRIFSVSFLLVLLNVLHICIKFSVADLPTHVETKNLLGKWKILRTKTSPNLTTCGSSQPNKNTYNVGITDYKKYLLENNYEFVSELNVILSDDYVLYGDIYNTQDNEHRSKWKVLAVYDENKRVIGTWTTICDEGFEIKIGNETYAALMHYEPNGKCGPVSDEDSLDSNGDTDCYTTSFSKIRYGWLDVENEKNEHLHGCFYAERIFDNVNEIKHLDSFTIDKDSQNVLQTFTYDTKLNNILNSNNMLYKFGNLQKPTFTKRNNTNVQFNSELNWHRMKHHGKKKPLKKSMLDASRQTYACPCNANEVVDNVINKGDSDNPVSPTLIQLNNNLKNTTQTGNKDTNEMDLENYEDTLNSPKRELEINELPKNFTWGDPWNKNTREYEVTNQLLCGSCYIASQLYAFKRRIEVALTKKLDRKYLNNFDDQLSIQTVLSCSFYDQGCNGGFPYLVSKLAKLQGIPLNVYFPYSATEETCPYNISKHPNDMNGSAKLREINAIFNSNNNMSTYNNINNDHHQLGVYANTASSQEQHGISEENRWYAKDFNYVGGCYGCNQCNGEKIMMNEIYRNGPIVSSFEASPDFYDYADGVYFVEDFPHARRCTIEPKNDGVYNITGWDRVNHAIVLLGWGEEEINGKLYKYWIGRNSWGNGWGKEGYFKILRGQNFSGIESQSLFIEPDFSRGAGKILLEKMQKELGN
row,Structure (SMILES),% Inhibition @ 10 uM
1,Cc1ccc(CNc2ncc(-c3ccccc3)n2C)o1,3.93%
2,Cc1cc(/C=C2/NC(=O)NC2=O)c(C)n1-c1ccc(OCc2ccccc2Cl)cc1,-1.25%
3,N#CC1=C(SCc2ccccc2)NC(=O)CC1c1cccc(O)c1 (stereo not shown),4.52%
4,c1ccc(Nc2ncnc3sc4c(c23)CCCC4)cc1,4.65%
5,COc1ccc(C2OCC(C)(C(=O)O)CO2)cc1 (stereo not shown),1.39%
6,Cc1cc(C)c2c(c1)C(=O)c1ccccc1-2,-0.736%
7,Cc1cc(OCC(O)CN2CCN(CCO)CC2)cc(C)c1Cl (stereo not shown),-2.37%
8,O=C(c1cc([N+](=O)[O-])ccc1Cl)N1CCN(Cc2ccccc2)CC1,-0.233%
9,COc1ccc(OC)c(CCNc2ccc3nnc(-c4ccccc4)n3n2)c1,-4.85%
10,O=C(NCc1ccccc1)C(=O)c1c(O)[nH]c2ccccc12,8.73%
11,CC(C)(C)OC(=O)N1CCN(C(=O)OC(C)(C)C)CC1,-0.312%
12,Cc1cccc(C)c1OCC(=O)N(Cc1ccccc1)C1CCS(=O)(=O)C1 (stereo not shown),-2.98%
13,CC1CN(C(=O)CCc2ccccc2)C(C)CN1C(=O)CCc1ccccc1 (stereo not shown),-2.9%
14,CN1CCN(C2=NC(=O)/C(=C\c3cccc4c3OCO4)S2)CC1,5.2%
15,COc1ccc2c(c1OC)C(=O)N(c1ccc(C)c(C)c1)C2=O,-3.41%
16,COc1ccc(OC)c(C2CC(=O)C3=C(C2)NC(=O)CC3c2ccc(C(F)(F)F)cc2)c1 (stereo not shown),-2.24%
17,CCOc1ccc(C(=O)c2oc3ccccc3c2NC(=O)c2cc(=O)c3ccccc3o2)cc1,-3.24%
18,Clc1cccc(N2CCN(Cc3ccc(Br)o3)CC2)c1,1.34%
19,CN(C)CCCN(C(=O)CCc1ccccc1)c1nc2c(F)cccc2s1,3.96%
20,CCOC(=O)c1nnn(-c2nonc2N)c1CSc1ccc(C)cc1,-0.0735%
21,Cc1ccsc1C1C(C#N)=C(N)Oc2c1c(=O)oc1ccccc21 (stereo not shown),4.26%
22,Cc1ccc2nc3c(c(N)c2c1)CCCCN3C,0.266%
23,CCN(CC)CCCNC(=O)C1CCN(Cc2nc(-c3ccc(Cl)cc3)oc2C)CC1,-1.05%
24,CCn1ncc(C2=NOC(C(=O)Nc3cnn(C45CC6CC(CC(C6)C4)C5)c3)C2)c1C (stereo not shown),0.291%
25,COc1ccc(-c2[nH]nc3c2C(c2ccoc2)C(C#N)=C(N)O3)cc1 (stereo not shown),4.09%
26,N#CC1C(=O)NC(=O)C([n+]2ccccc2)C1c1ccc(Cl)cc1 (stereo not shown),2.51%

row,Structure (SMILES),% Inhibition @ 10 uM
1,CCc1ccc(-c2[nH]nc3nc(-c4ccc(C(=O)OC)cc4)cc(C(=O)O)c23)cc1,-0.901%
2,Cc1nn(Cc2ccccc2)c(=O)[nH]c1=O,-1.85%
3,CC(=O)C(C(C)=O)C1=CC(=O)C(=O)c2ccccc21,21.8%
4,CC1(C)CC(CC(N)=O)(c2ccccc2)CCO1 (stereo not shown),3.76%
5,COc1ccc(-c2ccc(C#N)c(O)n2)cc1,12.8%
6,O=C(NCc1ccccc1)C(=O)NCc1ccc(Cl)cc1,1.29%
7,Cc1ccc(NC(=O)c2ccccc2F)cc1C,-2.03%
8,COc1ccccc1N1CCN(Cc2c(C)n(C)n(-c3ccccc3)c2=O)CC1,3.35%
9,COc1ccc(/C=c2\sc3nc(=O)c(C)nn3c2=O)cc1,0.222%
10,CC(Oc1ccccc1)C(=O)Nc1cc(Cl)ccc1O (stereo not shown),2.22%
11,O=C(Cn1c(-c2cncs2)nc2ccccc21)NCc1ccc(F)cc1,-2.05%
12,Cn1cc(CCC(=O)N2CCC(C(N)=O)CC2)c2ccccc21,3.36%
13,CC1=C(C(=O)OCC2CCCO2)C(c2ccccc2Cl)NC(=O)N1 (stereo not shown),3.61%
14,CCOCCCNC(=O)Nc1cnc2cc(OC)ccc2c1O,0.635%
15,N#CC1=C(N)OC2=C(CN(Cc3ccccc3)C/C2=C\c2cccnc2)C1c1cccnc1 (stereo not shown),0.628%
16,C(=C\c1ccc2ccccc2n1)/c1cccnc1,19.6%
17,C=CCNS(=O)(=O)c1c(C)cc(Cl)nc1Cl,2.18%
18,CCOc1ccc(N2Cc3ccc(OC)c(OC)c3C2=O)cc1,2.16%
19,O=C(Nc1cccc2ccccc12)NC(CC(=O)c1ccc(Cl)cc1Cl)C(Cl)(Cl)Cl (stereo not shown),-1.46%
20,CC/N=C1\S/C(=C\c2ccc(-c3cccc(C(=O)O)c3)o2)C(=O)N1CC,0.611%
21,Cc1cc(Cl)ccc1NC(=O)CN(C)S(=O)(=O)c1cc(Cl)ccc1Cl,5.29%
22,Cn1c(-c2cccc(Br)c2)nc2ccccc21,-0.551%
23,Cc1ccc(OCC(=O)Nc2ccc(Br)cc2)cc1,-3.45%
24,C=C(C)C1CCC(C)OC1c1ccc2c(c1)OCO2 (stereo not shown),3.05%
25,Cc1[nH]c2ccccc2c1C=C1C(=O)NC(=O)NC1=O,-0.85%
26,CC1CCCC(N2CCN(CCO)CC2)C1 (stereo not shown),-0.0953%
